# At least one read-out could not be matched to a standard name with certainty. Starred links: 1 amine or outer side, 2 acyl side, 3 side chain; linkers in the order of their positions; H or OH if unused. Positions of bridges follow the written chain, without caps; N, C: chain ends. Residues, ends and D or L forms follow the SMILES beside them. *: point of attachment. C18 diacid = O=C(O)CCCCCCCCCCCCCCCCC(=O)*; γGlu = O=C(O)[C@H](CCC(=O)[*:2])N[*:1]; AEEA = NCCOCCOCC(=O)O
# Columns and labels:
# [1] = Accelerated chemical stability (RP-UPLC recovery and LCMS degradation pattern, 37° C.); format: physicochemical; conditions: LCMS, 250 mM glycerol; for Recovery 2 W: 2 weeks at 37° C.; for Recovery TZ: time zero
# Description: In order to determine the chemical stability of CNP compounds in formulation, samples of CNP compounds in buffer were exposed to accelerated chemical degradation by heating. The stability of a given peptide was assessed by measuring recovery of intact peptide by quantification by RP-UPLC. To assess the chemical degradation pattern samples were also analysed by LC-MS.
# Sample preparation: Samples for the 2 week study were prepared according to the principles described in Example 5.
# Samples for the 6 week study were prepared by dissolving lyophilized peptide in buffer (8 mM phosphate, 250 mM glycerol, pH 7.4) to a nominal peptide concentration of 5000 nmol/ml followed by pH adjustment with 0.1 N HCl to pH 6.5.
# Incubation: For the 2 week study a time-zero (TZ) sample was pulled and stored at −18° C. and the remaining volume was incubated at 37° C. Samples were pulled and stored at −18° C. after 2 weeks of incubation. Frozen samples were thawed, diluted to about 200 nmol/mL and the extent of chemical degradation was determined using LCMS as described.
# For the 6 week study a time-zero (TZ) sample was pulled and stored at −18° C. and the remaining volume was incubated at 37° C. Samples were pulled on a weekly basis and stored at −18° C. until the last sampling time point at 6 weeks. Frozen samples were thawed, diluted to about 200 nmol/mL and the extent of chemical degradation was determined using RP-UPLC and LCMS as described.
# Analysis of peptide recovery by RP-UPLC: The RP-UPLC method was performed on a Waters ACQUITY H-CLASS UPLC system fitted with a PDA detector. Separation was carried out on an ACQUITY UPLC BEH C8 Column (130 Å, 1.7 μm, 2.1 mm×150 mm) operating at a column temperature of 50° C. with eluent A (19.59 mM NH4H2PO4 41.71 mM (NH4)2HPO4, pH 6.5 and MeCN 9:1 v:v) and eluent B (80% MeCN in water). UV-detection was carried out at 214 nm. The analysis was performed by injection of 3 μL of sample onto the column which was eluted with a 1-step linear gradient of eluents A and B from 27 to 30% B over 20 minutes followed by a wash at 95% B over 2 minutes followed by a re-equilibration phase for 7 minutes at a constant flow rate of 0.3 mL/min. This yielded an analysis time of 30 minutes per sample. The area of the peak corresponding to intact CNP compound was given on a percentage scale relative to the total peptide peak area.
# Analysis of chemical degradation patterns by LCMS: Samples were analysed on a […] UPLC from Thermo Scientific, using a Waters Acquity C18 reversed-phase column, 300 Å, […] particles 1 mm×150 mm. The compounds were separated by a linear gradient of solvent B from 5% to 55% over 48 minutes, using solvent A: water, 0.1% formic acid with 0.02% TFA and solvent B: acetonitrile, 0.1% formic acid with 0.02% TFA. Mass spectra were acquired by a Q Exactive Plus hybrid Quadrupole-Orbitrap mass spectrometer, BioPharma option (Thermo Scientific) interfaced with H-ESI II ion source. Data acquisitions were performed with a m/z 500 to 2000 scan range and a resolution of 30000.
# The data list was aggregated into a summed table of the compounds. The table headers were defined as follows: […]
# Results: The results from LCMS analysis of a 2 week accelerated degradation study on several CNP compounds of the present invention are summarised in Table 12. The results from RP-UPLC and LCMS analysis of a 6 week accelerated degradation study on CNP compound 9482 (Chem. 137) is summarised in Table 13 and Table 14 respectively.
# [2] = Thioflavin T (ThT) assay: lagtime and peptide recovery; format: physicochemical; conditions: for Peptide Recovery (%) at pH 6.5: ThT assay, pH 6.5, after 45h incubation
# Method in brief: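 ThT (final about 1 μM) was added to peptide supernatants at pH 4.0 and 6.5 and incubated at 37 °C with orbital shaking for 45 h. Fluorescence (ex 444/em 485 nm) was read every 20 min, and lag-time was taken as the time to onset of signal rise. Recovery is the RP-UPLC (215 nm) total peak area after vs. before incubation.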
compound,measurement,setting,value
CC[C@H](C)[C@@H]1NC(=O)[C@H](CCCNC(=N)N)NC(=O)[C@H](CC(=O)O)NC(=O)[C@H](CC(C)C)NC(=O)[C@@H]2CCCN2C(=O)[C@H](CC(C)C)NC(=O)CNC(=O)[C@H](Cc2ccccc2)NC(=O)[C@@H](NC(=O)CNC(=O)[C@H](CCC(N)=O)NC(=O)[C@H](CO)NC(=O)[C@H](CC(C)C)NC(=O)CNC(=O)[C@H](CCCCN)NC(=O)[C@H](CCCCN)NC(=O)[C@H](CCC(N)=O)NC(=O)[C@H](C)NC(=O)CNC(=O)[C@H](CCCCN)NC(=O)[C@H](Cc2ccc(O)cc2)NC(=O)[C@H](CCCCN)NC(=O)[C@H](CCCNC(=N)N)NC(=O)[C@H](C)NC(=O)COCCOCCNC(=O)COCCOCCNC(=O)COCCOCCNC(=O)COCCOCCNC(=O)CC[C@H](NC(=O)CC[C@H](NC(=O)CC[C@H](NC(=O)CC[C@H](NC(=O)CC[C@H](NC(=O)CCCCCCCCCCCCCCCCC(=O)O)C(=O)O)C(=O)O)C(=O)O)C(=O)O)C(=O)O)CSSC[C@@H](C(=O)O)NC(=O)CNC(=O)[C@H](CC(C)C)NC(=O)CNC(=O)[C@H](CO)NC(=O)[C@H](CC(C)C)NC(=O)[C@H](CO)NC(=O)CNC1=O [Compound 9407] ({C18 diacid-γGlu-γGlu-γGlu-γGlu-γGlu-AEEA-AEEA-AEEA-AEEA}-ARKYKGAQKKGLSQGCFGLPLDRIGSLSGLGC-OH; disulfide 16-32),Recovery 2 W,"[1]; 8 mM sodium phosphate, pH 6.5",98.5
same,Recovery TZ,"[1]; 8 mM sodium phosphate, pH 6.5",100
CC[C@H](C)[C@@H]1NC(=O)[C@H](CCCNC(=N)N)NC(=O)[C@H](CC(=O)O)NC(=O)[C@H](CC(C)C)NC(=O)[C@@H]2CCCN2C(=O)[C@H](CC(C)C)NC(=O)CNC(=O)[C@H](Cc2ccccc2)NC(=O)[C@@H](NC(=O)CNC(=O)[C@H](CCC(N)=O)NC(=O)[C@H](CO)NC(=O)CNC(=O)CNC(=O)[C@H](CCCCN)NC(=O)[C@H](CCCCN)NC(=O)[C@H](CCC(N)=O)NC(=O)[C@H](C)NC(=O)CNC(=O)[C@H](CCCCN)NC(=O)[C@H](Cc2ccc(O)cc2)NC(=O)COCCOCCNC(=O)COCCOCCNC(=O)COCCOCCNC(=O)COCCOCCNC(=O)CC[C@H](NC(=O)CC[C@H](NC(=O)CCCCCCCCCCCCCCCCC(=O)O)C(=O)O)C(=O)O)CSSC[C@@H](C(=O)O)NC(=O)CNC(=O)[C@H](CC(C)C)NC(=O)CNC(=O)[C@H](CO)NC(=O)[C@H](CC(C)C)NC(=O)[C@H](CO)NC(=O)CNC1=O [Compound 9435] ({C18 diacid-γGlu-γGlu-AEEA-AEEA-AEEA-AEEA}-YKGAQKKGGSQGCFGLPLDRIGSLSGLGC-OH; disulfide 13-29),Recovery 2 W,"[1]; 5 mM sodium acetate, pH 4",92.9
same,Recovery TZ,"[1]; 5 mM sodium acetate, pH 4",100
CC[C@H](C)[C@@H]1NC(=O)[C@H](CCCNC(=N)N)NC(=O)[C@H](CC(=O)O)NC(=O)[C@H](CC(C)C)NC(=O)[C@@H]2CCCN2C(=O)[C@H](CC(C)C)NC(=O)CNC(=O)[C@H](Cc2ccccc2)NC(=O)[C@@H](NC(=O)CNC(=O)[C@H](CCC(N)=O)NC(=O)[C@H](CO)NC(=O)[C@H](CO)NC(=O)CNC(=O)[C@H](CCCCN)NC(=O)[C@H](CCCCN)NC(=O)[C@H](CCC(N)=O)NC(=O)[C@H](C)NC(=O)CNC(=O)[C@@H]2CCCN2C(=O)[C@H](C)NC(=O)[C@H](CCC(N)=O)NC(=O)CNC(=O)COCCOCCNC(=O)COCCOCCNC(=O)CC[C@H](NC(=O)CCCCCCCCCCCCCCCCC(=O)O)C(=O)O)CSSC[C@@H](C(=O)O)NC(=O)CNC(=O)[C@H](CC(C)C)NC(=O)CNC(=O)[C@H](CO)NC(=O)[C@H](CC(C)C)NC(=O)[C@H](CO)NC(=O)CNC1=O [compound 9384] ({C18 diacid-γGlu-AEEA-AEEA}-GQAPGAQKKGSSQGCFGLPLDRIGSLSGLGC-OH; disulfide 15-31; C-terminus assumed),Peptide Recovery (%) at pH 6.5,[2],135%
CC[C@H](C)[C@@H]1NC(=O)[C@H](CCCNC(=N)N)NC(=O)[C@H](CC(=O)O)NC(=O)[C@H](CC(C)C)NC(=O)[C@@H]2CCCN2C(=O)[C@H](CC(C)C)NC(=O)CNC(=O)[C@H](Cc2ccccc2)NC(=O)[C@@H](NC(=O)CNC(=O)[C@H](CCC(N)=O)NC(=O)[C@H](CO)NC(=O)[C@H](CC(C)C)NC(=O)CNC(=O)[C@H](CCCCN)NC(=O)[C@H](CCCCN)NC(=O)[C@H](CCC(N)=O)NC(=O)[C@H](C)NC(=O)CNC(=O)[C@H](CCCCN)NC(=O)[C@H](Cc2ccc(O)cc2)NC(=O)[C@H](CCCCN)NC(=O)[C@H](CCCNC(=N)N)NC(=O)[C@H](C)NC(=O)COCCOCCNC(=O)COCCOCCNC(=O)COCCOCCNC(=O)COCCOCCNC(=O)CC[C@H](NC(=O)CC[C@H](NC(=O)CC[C@H](NC(=O)CC[C@H](NC(=O)CC[C@H](NC(=O)CCCCCCCCCCCCCCCCC(=O)O)C(=O)O)C(=O)O)C(=O)O)C(=O)O)C(=O)O)CSSC[C@@H](C(=O)O)NC(=O)CNC(=O)[C@H](CC(C)C)NC(=O)CNC(=O)[C@H](CO)NC(=O)[C@H](CC(C)C)NC(=O)[C@H](CO)NC(=O)CNC1=O [compound 9407] ({C18 diacid-γGlu-γGlu-γGlu-γGlu-γGlu-AEEA-AEEA-AEEA-AEEA}-ARKYKGAQKKGLSQGCFGLPLDRIGSLSGLGC-OH; disulfide 16-32),Peptide Recovery (%) at pH 6.5,[2],128%
CC[C@H](C)[C@@H]1NC(=O)[C@H](CCCNC(=N)N)NC(=O)[C@H](CC(=O)O)NC(=O)[C@H](CC(C)C)NC(=O)[C@@H]2CCCN2C(=O)[C@H](CC(C)C)NC(=O)CNC(=O)[C@H](Cc2ccccc2)NC(=O)[C@@H](NC(=O)CNC(=O)[C@H](CCC(N)=O)NC(=O)[C@H](CO)NC(=O)CNC(=O)CNC(=O)[C@H](CCCCN)NC(=O)[C@H](CCCCN)NC(=O)[C@H](CCC(N)=O)NC(=O)[C@H](C)NC(=O)CNC(=O)[C@H](CCCCN)NC(=O)[C@H](Cc2ccc(O)cc2)NC(=O)COCCOCCNC(=O)COCCOCCNC(=O)COCCOCCNC(=O)COCCOCCNC(=O)CC[C@H](NC(=O)CC[C@H](NC(=O)CCCCCCCCCCCCCCCCC(=O)O)C(=O)O)C(=O)O)CSSC[C@@H](C(=O)O)NC(=O)CNC(=O)[C@H](CC(C)C)NC(=O)CNC(=O)[C@H](CO)NC(=O)[C@H](CC(C)C)NC(=O)[C@H](CO)NC(=O)CNC1=O [compound 9435] ({C18 diacid-γGlu-γGlu-AEEA-AEEA-AEEA-AEEA}-YKGAQKKGGSQGCFGLPLDRIGSLSGLGC-OH; disulfide 13-29; C-terminus assumed),Peptide Recovery (%) at pH 6.5,[2],99%
same,Peptide Recovery (%) at pH 4.0,"[2]; after 45 h ThT incubation vs before, RP-UPLC",111%
CC[C@H](C)[C@@H]1NC(=O)[C@H](CCCNC(=N)N)NC(=O)[C@H](CC(=O)O)NC(=O)[C@H](CC(C)C)NC(=O)[C@@H]2CCCN2C(=O)[C@H](CC(C)C)NC(=O)CNC(=O)[C@H](Cc2ccccc2)NC(=O)[C@@H](NC(=O)CNC(=O)[C@H](CCC(N)=O)NC(=O)[C@H](CO)NC(=O)[C@H](CC(C)C)NC(=O)CNC(=O)[C@H](CCCCN)NC(=O)[C@H](CCCCN)NC(=O)[C@H](CCC(N)=O)NC(=O)[C@H](C)NC(=O)CNC(=O)[C@H](CCCCN)NC(=O)[C@H](Cc2ccc(O)cc2)NC(=O)COCCOCCNC(=O)COCCOCCNC(=O)COCCOCCNC(=O)COCCOCCNC(=O)CC[C@H](NC(=O)CC[C@H](NC(=O)CC[C@H](NC(=O)CCCCCCCCCCCCCCCCC(=O)O)C(=O)O)C(=O)O)C(=O)O)CSSC[C@@H](C(=O)O)NC(=O)CNC(=O)[C@H](CC(C)C)NC(=O)CNC(=O)[C@H](CO)NC(=O)[C@H](CC(C)C)NC(=O)[C@H](CO)NC(=O)CNC1=O [compound 9480] ({C18 diacid-γGlu-γGlu-γGlu-AEEA-AEEA-AEEA-AEEA}-YKGAQKKGLSQGCFGLPLDRIGSLSGLGC-OH; disulfide 13-29),Peptide Recovery (%) at pH 6.5,[2],104%

# Reference: patent US20240209028A1, “CNP COMPOUNDS” (priority 2022, published 2024)
